We go through 88 sequences from the supplement of paper PMC11417369.

This is one part of the list.

For the test, the system named is PF3D7_0420300 AP2 domain 1 (GST-tagged). Put plainly: gcPBM binding intensity (ln(normalized median fluorescence intensity)); higher = stronger DNA binding. In a few lines: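 Each value is the highest Masliner-normalised natural-log median intensity across replicate spots of either orientation of a probe. The probes were primer-extended double-stranded 36-bp intergenic genomic sequences on an Agilent 4 × 180k array, alongside negative controls, exposed for 1 h to GST-tagged P. falciparum DNA-binding domains expressed in E. coli. Bound protein was picked up with Alexa488 anti-GST antibody and scanned at 488 nm.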
In the case of “TATACAGATATATATACACACATATATATAAATACA [CACACA_site4383]”, the “gcPBM binding intensity (ln)” value was 9.68.
Then “TATATATATAATATATGTACTCATATTAAGAGATAC [XGTACX_site1354]”, with 9.19; and “TATATATGTATATTTTGTACGTATTTATTTACATGA [XGTACX_site4584]”, with 9.3.
Then “AATGAGCTTTTTAAAAGTACTAAATATAAATAAATA [XGTACX_site3632]”, with 9.04; and “ATAATATAAATATACACACACACATATATATATATA [CACACA_site2905]”, with 9.91.
Take “TAATAAGGAATTTATAGTACATATTCATATGTTTTA [XGTACX_site2331]”: the “gcPBM binding intensity (ln)” value worked out at 8.92.
With “ATAAAAATTTATATATGTACTTAATTTTTAATTTTT [XGTACX_site7482]”, the “gcPBM binding intensity (ln)” value stood at 9.15.
Regarding TATGTTTTTGAATGAGTGCATTAAAATAAAACATTT, the “gcPBM binding intensity (ln)” value was 8.99.
Consider “TTCTTGTATATTCATAGTACATATAATGTCGTGTTA [XGTACX_site8991]”, for which the “gcPBM binding intensity (ln)” value was 9.24.
Then “AATTTAAAAAATAATTGTACAAAAAAAAAAAATCAG [XGTACX_site4576]”, with 9.37; and “GTTAATATTTTTGGGGGTACTTAAAAAAAAAAAAAA [XGTACX_site1477]”, with 9.22.
Regarding TTACATACAATTGGTGTGCACATATATATATATATA, the “gcPBM binding intensity (ln)” value worked out at 9.44.
With “GAATATTAATTCAAGTGTACAAATATATATATAATT [XGTACX_site5103]”, the “gcPBM binding intensity (ln)” value was determined as 9.23.
With “CAAAAGGATAGGCACACACACACACCGATATATATA [CACACA_site8685]”, the “gcPBM binding intensity (ln)” value was found to be 10.2.
“TATGTTTCTATATATACATGCAAGAAGAAATGTACT [TGCATGCA_site891]”: the “gcPBM binding intensity (ln)” value turned out to be 9.13.
With “AAAAAAAAAAAAGAAAAATATATATATAAATAAATA [GTGCAC_negctrl_site569]”, the “gcPBM binding intensity (ln)” value worked out at 9.12.
For “ATATGTACAAATTATACACACATGTACAATTATATA [CACACA_site1253]” the value was 9.49; for “ATGTCACAATTTTTCACACACAAAATTTATATACAT [CACACA_site2030]”, 9.72.
Then “AAATAAAGAAATGCAAGTACATACTAAACTAATCCA [XGTACX_site1209]”, with 9.55; and “TTGTTTTATACATAGTGTACATATAAAAATTTTTTT [XGTACX_site7549]”, with 9.07.
Then “ATATATATTATAATCTGTACATAAATATATAATAAA [XGTACX_site5425]”, with 9.1; and “TCTTAAATTATGATAAAATATAATAAATAAATAAAT [CACACA_negctrl_site1520]”, with 8.98; and “ATTTTCCCTAGAATATGTACACATAGTAAATATTAT [XGTACX_site7499]”, with 9.24.
“CAGATAAATAAACACACACACACATATATATATATA [CACACA_site9311]”: the “gcPBM binding intensity (ln)” value stood at 9.93.
For the sequence “ATATATAAATATGAAACACACATTCTATTTAATTCG [CACACA_site1450]”, the “gcPBM binding intensity (ln)” value came out at 9.3.
Regarding “CTTAAATCCATAATATGTACTTAAAAAGAAAAAATA [XGTACX_site4765]”, the “gcPBM binding intensity (ln)” value was 8.91.
On to “ATAATTATACAAAAGCGTACACGATATAAATCTACG [XGTACX_site8115]”, for which the “gcPBM binding intensity (ln)” value worked out at 9.41.
For “AGACAATTTTTTAGTACACACATATAGATATATAAA [CACACA_site6832]” the value was 9.46; for “TTATAAAAAAAAAAAAAAAAAAAAACCAATATAATA [CACACA_negctrl_site968]”, 9.22; for “TTTATTCTAAAATATTAAAAATGATTTGTTTTTTCA [CACACA_negctrl_site1751]”, 8.78.
For the sequence “ATATGAACATTAAAAAAGTAAGGTATTCTCCCCTCT [CACACA_negctrl_site1299]”, the “gcPBM binding intensity (ln)” value turned out to be 9.2.
Take “GTATTATAAAAAGGAAGTACATATATACATATTATA [XGTACX_site1271]”: the “gcPBM binding intensity (ln)” value is 9.26.
As for “AATTATACTCACGTTACACACACACTAGATATATAT [CACACA_site6133]”, the “gcPBM binding intensity (ln)” value was 10.1.
On to “TTTTTTTTTTTTTTTTGTACATATATATAAAAAATA [XGTACX_site2772]”, for which the “gcPBM binding intensity (ln)” value was determined as 8.49.
Then “TAATATTACATTTATTGTACTTTGTTTTTATTTTAT [XGTACX_site1605]”, with 9.48; and “CCCACAATGGTTTATATACACACTGTTGCAAATTCT [CACACA_site3066]”, with 9.45; and “ATTGAAAAAATACAATGTACATAGTAATACAAAGAA [XGTACX_site4142]”, with 9.56.
Regarding “TAATACTTAATGAACACATGCACATATACATAGTAT [TGCATGCA_site496]”, the “gcPBM binding intensity (ln)” value amounted to 9.36.
In the case of “TGTTTCTAAGAATTTACACACAAAATATTTCTACAT [CACACA_site7846]”, the “gcPBM binding intensity (ln)” value is 9.55.
For “AAAAAAAAAAATTGCACACAAAAAAAAAAAAAAAAA [CACACA_site2073]” the value was 8.92; for “TTAAAAATTAAAAGTAGTACATATAATATAAACATT [XGTACX_site424]”, 9.31; for “ATACACGTTTTACAATGTACAGAAAGTATACATAAT [XGTACX_site4585]”, 9.36.
For “TTTAATCAACAAAATCTACACACTAATATGAAATAT [CACACA_site9250]” the value was 9.36; for “TATTATATATATAAATGTACATATTATTTTTCTTTT [XGTACX_site8670]”, 9.24; for “GTATTTTTTTTCTTTTGTACATATATATAAAGAATA [XGTACX_site4569]”, 9.27.
“AAGAATTTTCGATTTGCACACATTTGTAAAATAAAA [CACACA_site2354]”: the “gcPBM binding intensity (ln)” value was determined as 9.19.
Regarding “CATATCAAAAAAAAATGTACACGTATATACAATACA [XGTACX_site2660]”, the “gcPBM binding intensity (ln)” value turned out to be 9.38.
On to “TTTTAAAATAAAAAAATAAAAAAAGGGGAAAAAAAA [CACACA_negctrl_site847]”, for which the “gcPBM binding intensity (ln)” value came to 9.39.
As for “ATATACTTATATATTGCACACATCTAATATTTTGAA [CACACA_site3165]”, the “gcPBM binding intensity (ln)” value is 9.42.
Turning to “TATAATATGTTTGATGGTACACGTAAACACCTTGCA [XGTACX_site1643]”, the “gcPBM binding intensity (ln)” value came out at 9.15.
Regarding “ATAACTAAATTATATTGTACAAAATAATTATATATT [XGTACX_site1188]”, the “gcPBM binding intensity (ln)” value amounted to 9.19.
Turning to “TTCATTAAAACGAATACACACATAAATATATAAAAG [CACACA_site4824]”, the “gcPBM binding intensity (ln)” value is 9.62.
Take “AAATATATATATATTACACACTATATATTTATTTAT [CACACA_site681]”: the “gcPBM binding intensity (ln)” value turned out to be 9.42.
Consider “CAACAAAAGAAACACACACACACAAACACAAAAAAA [CACACA_site3389]”, for which the “gcPBM binding intensity (ln)” value amounted to 10.
As for “GGATATATTATATGTACACACATATATAACGGATAT [CACACA_site1309]”, the “gcPBM binding intensity (ln)” value turned out to be 9.69.
Turning to “TGTATACCTTAATATACACACATACATATATATATA [CACACA_site8370]”, the “gcPBM binding intensity (ln)” value stood at 9.46.
Consider “ATATACATATTTTTGACACACATTAGGAAAATATAT [CACACA_site4123]”, for which the “gcPBM binding intensity (ln)” value worked out at 9.39.
Consider “ATGTAATAAATACTACGTACATATATATGTGTTAAT [XGTACX_site3265]”, for which the “gcPBM binding intensity (ln)” value worked out at 9.36.
Then “ATATATAAATATAGCATACACACAAAAAAATAAAAT [CACACA_site2332]”, with 10; and “TATTATTTATATGATACACACGTACATATACACATA [CACACA_site9275]”, with 9.37; and “ATGTATCGTAACAAATGTACAAGAGGATGTTTAGAC [XGTACX_site3355]”, with 9.57.
Then “GTATTTATATGATTAACACACATATGTGGATTAATA [CACACA_site1315]”, with 9.35.
Turning to “GATATATTTTGTTATGTAGATGTTGGTAGGAATTTT [GTGCAC_negctrl_site485]”, the “gcPBM binding intensity (ln)” value turned out to be 9.39.
For the sequence “TATATAACTACAAGAACACACATATAAATATAAATA [CACACA_site7210]”, the “gcPBM binding intensity (ln)” value was 9.73.
For “GTAATTAAGATATATACACACAAAGGCTATTAAATA [CACACA_site6604]” the value was 9.67; for “TATTGATAAAAAATATGTACATATATACATATATAT [XGTACX_site3821]”, 9.18; for “ATATATATATATATATGTACGTAAACAAAAATTTAT [XGTACX_site6780]”, 9.41.
As to “ACAAATAAAAAAATTACACACATATATAATATATAT [CACACA_site1361]”, the “gcPBM binding intensity (ln)” value was determined as 9.68.
Then “AGTAGTCTGGAGAAAAGTACACAGTATCTGGTAACA [XGTACX_site2034]”, with 9.1; and “AAAAATAAAATAAAATAAAATAAAAATAAAGAAAAA [CACACA_negctrl_site808]”, with 9.51.
Regarding “TTAATTCTATACATAAATTATGTTTACATAAAGAAT [GTGCAC_negctrl_site246]”, the “gcPBM binding intensity (ln)” value was found to be 8.89.
Then “TATTAACTCAATAGCGCACACTTTTAATATTTTATA [CACACA_site4973]”, with 9.35; and “ATTTGACACGTATATGCACACACCCGTAAGTGTCCA [CACACA_site8891]”, with 9.6; and “ATGTGATAATTTAGGAGTACTGTCATAAGCATTTCT [XGTACX_site3091]”, with 9.24.
Turning to “TTATAAATTTTTAATAGTACATAAAATTAAAGGTAA [XGTACX_site760]”, the “gcPBM binding intensity (ln)” value amounted to 8.83.
Turning to “TCATAAAAAGGAATCTTTAAGATATTTTATAAGCTC [XGTACX_negctrl_site18]”, the “gcPBM binding intensity (ln)” value worked out at 8.83.
Consider “TTTCTTTATTTATAATAATTTTTTATTAAAAATAGA [CACACA_negctrl_site1610]”, for which the “gcPBM binding intensity (ln)” value is 8.59.
Turning to “AATAAATGTCTGTTAATGCACACGATATGTCTATAT [CACACA_site2351]”, the “gcPBM binding intensity (ln)” value came out at 9.36.
Regarding “AGTGCATAATATTTATGTACGTATCACATATATTTT [XGTACX_site5166]”, the “gcPBM binding intensity (ln)” value stood at 9.27.
On to “TATTTGGGTATTTTTACACACATTAATATATATATA [CACACA_site9114]”, for which the “gcPBM binding intensity (ln)” value turned out to be 9.49.
For “ATAATGGAAAAAAAATATAATAATACGAAATAGGAA [TGCATGCA_negctrl_site64]” the value was 9.69; for “AAAGATAATAATATGCGTACATAAAAATATATGATA [XGTACX_site6884]”, 9.35; for “AGTTAAATGAATCAATACATAAATATGTATATATAT [TGCATGCA_negctrl_site539]”, 9.16.
On to “TGAATCAATTGTTGCTGTACATAAGGTATACAATAA [XGTACX_site5127]”, for which the “gcPBM binding intensity (ln)” value amounted to 9.1.
“TTTTTTTAATAAATTTATAACAATATGATAGGTGAC [CACACA_negctrl_site1783]”: the “gcPBM binding intensity (ln)” value was determined as 9.33.
Turning to “TAATTACCATATGGTACACACATATATATCTGTATA [CACACA_site5849]”, the “gcPBM binding intensity (ln)” value is 9.59.
Consider “AATAATATCTGAAAATGTACATTTTATTATAAACAT [XGTACX_site8441]”, for which the “gcPBM binding intensity (ln)” value turned out to be 9.32.
For the sequence “AAGAAGAGTTATTGTAGTACATTTTTAAATGTAATA [XGTACX_site7664]”, the “gcPBM binding intensity (ln)” value worked out at 9.04.
